Out of some 73,000 compounds screened, about 1,800 (2.5%) were called active. Another 13% or so got no clear call; they are omitted. The call rests on the fitted dose curve; in most records, active means well fitted activation curve with a large enough effect; inconclusive means small, poorly fitted or top-dose-only effect; inactive means no such curve, though single readings can be large or run the other way. Only a part is listed here, and it is no random draw. A structure can be active in one record and inactive in another.
assay: qHTS Assay for Agonists of the Thyroid Stimulating Hormone Receptor: Activators of Intracellular cAMP Concentrations in Parental HEK 293; details: parental HEK293 CNG cAMP sensor, membrane potential fluorescence; series mostly up to 57.1 µM; activation: at the top concentration; further: nearly all actives have a fitted effect of over 55% in size; on activation: % of control where 0% means no effect
In short: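 Parental HEK 293 cells stably expressing a cAMP-gated CNG channel were loaded with membrane potential dye containing 100 uM RO 20-1724 for 60 min. Compound added for 30 min; depolarization read as fluorescence intensity at 590 nm.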
Potency means the concentration at half of the fitted maximal effect.

Row | SMILES | Potency | activation
1 | COc1ccc(NC(=O)N2CC3(CCN(C(=O)c4c(C)noc4C)CC3)C2)cc1 | active: 12.6 µM | –
2 | Oc1cc2c(cc1O)CN(C(=S)NCCc1ccc(Cl)cc1)CCC2 | – | inactive: -30.9%
3 | COc1ccc2c(c1)c(CC(=O)N1CCOCC1)c(C)n2C(=O)c1ccc(Cl)cc1 | – | inactive: 14%
4 | CNCCCC12CCC(c3ccccc31)c1ccccc12 | – | inactive: 8.12%
5 | Cn1c(/N=C/c2c(O)ccc3ccccc23)nc2ccccc21 | – | inactive: -39.6% [at 11.4 µM]
6 | O=C(c1cccc(F)c1)N1CCC2(CC1)CCN(c1ccncc1)CC2 | active: 3.98 µM | –
7 | OCC(CO)(CO)N=Cc1c(O)ccc2ccccc12 | – | inactive: -3.51%
8 | CCCCCCCCC | – | inactive: -36.5%
9 | CCOc1ccccc1N1CCN(CC(O)COc2ccc3c(C)cc(=O)oc3c2)CC1 (stereo not given) | – | inactive: -35.9%
10 | COc1cc(NC(=O)c2ccc(Br)o2)ccc1NC(=O)C(C)C | – | inactive: -54.2%
11 | CC1(C)CC(=O)c2cc(OCC(=O)NCCN3CCCc4ccccc43)ccc2O1 | – | inactive: 29.2%
12 | CSc1ccc2[nH]c(=O)cc(C)c2c1 | – | inactive: 2.85%
13 | CC(=O)CCCCn1c(=O)c2c(ncn2C)n(C)c1=O | inactive | –
14 | Cc1ccc(-c2cc(C(F)F)n3ncc(C(=O)N4CCN(c5ccccn5)CC4)c3n2)cc1 | active: 31.6 µM | –
15 | CCCCNc1cc(C(=O)O)cc(S(N)(=O)=O)c1Oc1ccccc1 | – | inactive: 13.6% [at 25.6 µM]
16 | CCOC(=O)c1cc(C#N)c(SCc2ccc(C#N)cc2)nc1C | active: 31.6 µM | –
17 | Nc1nonc1-c1nc2ccccc2n1CC(=O)N1CCN(c2ccc(F)cc2)CC1 | active: 25.1 µM | –
18 | C[C@H]1NC(=O)NC1=O | – | inactive: -0.556% [at 25.6 µM]
19 | CC(=O)OCC1OC(C#CC(C)(C)C)C=CC1OC(C)=O (stereo not given) | – | inactive: 0.291% [at 11.4 µM]
20 | N=c1c2c(-c3ccccc3)c(-c3ccccc3)n(Cc3ccco3)c2ncn1Cc1ccco1 | – | inactive: -42.3%
21 | O=C(c1ccco1)N1CCC2(CC1)CN(c1ncccn1)C2 | – | inactive: -3.5%
22 | CCOc1c(C(N)=O)c(-c2ccccc2)c2c(=O)[nH]c3ccccc3n12 | – | inactive: -58.9%
23 | Cc1ccc(Cn2c(=N)c(C(=O)NCc3ccco3)cc3c(=O)n4ccccc4nc32)cc1 | – | inactive: -84.1%
24 | CCN(CC)CCOC(=O)c1ccc(N)cc1 | – | inactive: -0.289% [at 25.6 µM]
25 | O=S(=O)(c1ccc(OCC(O)CN2CCN(c3ccccc3Cl)CC2)cc1)N1CCOCC1 (stereo not given) | – | inactive: -33.3%
